The target in test [1] is T1, 60S acidic ribosomal protein P0 (Os60sP0p), endogenous in rice tissues (rice (endogenous in TP309 tissues)) (UniProt P41095).
T1 sequence: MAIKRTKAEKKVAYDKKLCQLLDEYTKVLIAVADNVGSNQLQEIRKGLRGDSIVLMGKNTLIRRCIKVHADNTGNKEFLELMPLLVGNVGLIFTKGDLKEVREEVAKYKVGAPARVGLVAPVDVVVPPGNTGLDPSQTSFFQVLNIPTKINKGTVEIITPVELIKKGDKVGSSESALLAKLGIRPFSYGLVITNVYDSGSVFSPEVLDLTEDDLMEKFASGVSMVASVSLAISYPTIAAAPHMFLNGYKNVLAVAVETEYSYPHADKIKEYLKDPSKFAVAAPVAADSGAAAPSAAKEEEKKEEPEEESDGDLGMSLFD
Kind of test: co-IP; crude protein extract of rice immature endosperm in RIPA buffer; antiserum against OsSec18 or Os60sP0p, Protein A agarose, 4°C; Western blot with antisera against OsSec18, Os60sP0p or Os60sP1p. (In western blotting, separated proteins are transferred to a membrane and probed.)

For test [2], the target named is OsSec18, endogenous in rice tissues (rice (endogenous in TP309 tissues)) (UniProt Q0DGP6). Described as above.
For test [3] the target is unchanged. Put plainly: co-IP; crude protein extract of rice leaf.
Test [4] shares this target. Kind of test: co-IP; crude protein extract of rice stem.
Test [5] has the same target. Put plainly: SEC; crude protein extract of rice immature endosperm on a Sepharose 300 column; the 290-kDa fraction that held OsSec18 (anti-OsSec18 serum) separated by SDS-PAGE, bands identified by MALDI-TOF mass spectrometry. A general note: SEC sorts molecules by how far they enter the pores of the column.
Test [6] has as its target T2, OsSec18 C-terminus (470-744 aa) (yeast two-hybrid fusion) (rice) (UniProt Q0DGP6).
T2 sequence: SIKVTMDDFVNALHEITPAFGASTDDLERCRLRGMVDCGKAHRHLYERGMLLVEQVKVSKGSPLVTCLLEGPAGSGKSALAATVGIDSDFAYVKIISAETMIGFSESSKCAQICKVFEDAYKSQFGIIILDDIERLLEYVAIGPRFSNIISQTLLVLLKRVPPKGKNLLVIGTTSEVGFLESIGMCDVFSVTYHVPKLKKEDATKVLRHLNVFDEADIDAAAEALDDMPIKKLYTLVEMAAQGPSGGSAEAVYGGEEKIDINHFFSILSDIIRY
Kind of test: two-hybrid; yeast AH109, constructs in pGBKT7 and pGADT7; growth on SD medium lacking Leu, Trp, His (and Ade).

For test [7], the target named is T3, OsSec18 N-terminus (1-260 aa) (yeast two-hybrid fusion) (rice) (UniProt Q0DGP6).
T3 sequence: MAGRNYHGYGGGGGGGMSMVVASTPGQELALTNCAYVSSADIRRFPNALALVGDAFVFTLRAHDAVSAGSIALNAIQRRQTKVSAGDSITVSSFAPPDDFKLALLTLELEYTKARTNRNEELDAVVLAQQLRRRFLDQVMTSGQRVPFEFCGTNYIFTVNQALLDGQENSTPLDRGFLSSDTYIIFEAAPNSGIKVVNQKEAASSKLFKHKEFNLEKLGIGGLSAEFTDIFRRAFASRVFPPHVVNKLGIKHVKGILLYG
The description is as above.

In test [8] the target is OsSec18, full length (yeast two-hybrid fusion) (rice) (UniProt Q0DGP6). Described as above.

These are yes or no findings as the source states them, for the method shown. For some of these results: Binding seen in cells or lysates may run through a third protein. Some results given as binding are weak or reduced against the parent protein; the word gives no strength. For some of these results: Sequences can lack the tags named with a protein.

On to “OsSec18, endogenous in rice tissues (from UniProt Q0DGP6 1-743)”, for which, in test [1], the binding entry was “binds”.

B1: 60S acidic ribosomal protein P0 (Os60sP0p), endogenous in rice tissues (protein, UniProt P41095 1-319)
chain: T1 sequence
Turning to B1, the binding entry is “binds” in test [2], “no binding (condition: in crude protein extract of leaf)” in test [3], “binds” in test [4] and “binds” in test [5].

B2: 60S acidic ribosomal protein P0 (Os60sP0p), full length (yeast two-hybrid fusion) (protein, UniProt P41095 1-319)
chain: T1 sequence
For the molecule B2, the binding entry in test [6], in test [7] and in test [8] was “binds” throughout.

B3: glutelin type B1 (GLUB1) (yeast two-hybrid fusion) (protein, UniProt P14323 1-499)
chain: MASSVFSRFSIYFCVLLLCHGSMAQLFNPSTNPWHSPRQGSFRECRFDRLQAFEPLRKVRSEAGVTEYFDEKNELFQCTGTFVIRRVIQPQGLLVPRYTNIPGVVYIIQGRGSMGLTFPGCPATYQQQFQQFSSQGQSQSQKFRDEHQKIHQFRQGDIVALPAGVAHWFYNDGDAPIVAVYVYDVNNNANQLEPRQKEFLLAGNNNRAQQQQVYGSSIEQHSGQNIFSGFGVEMLSEALGINAVAAKRLQSQNDQRGEIIHVKNGLQLLKPTLTQQQEQAQAQDQYQQVQYSERQQTSSRWNGLEENFCTIKVRVNIENPSRADSYNPRAGRITSVNSQKFPILNLIQMSATRVNLYQNAILSPFWNVNAHSLVYMIQGRSRVQVVSNFGKTVFDGVLRPGQLLIIPQHYAVLKKAEREGCQYIAIKTNANAFVSHLAGKNSVFRALPVDVVANAYRISREQARSLKNNRGEEHGAFTPRFQQQYYPGLSNESESETSE
Regarding B3, in test [8], the binding entry is reported as “no binding”.

B4: Os60sP0p N-terminus (1-128 aa) (yeast two-hybrid fusion) (domain or fragment, UniProt P41095 1-128)
chain: MAIKRTKAEKKVAYDKKLCQLLDEYTKVLIAVADNVGSNQLQEIRKGLRGDSIVLMGKNTLIRRCIKVHADNTGNKEFLELMPLLVGNVGLIFTKGDLKEVREEVAKYKVGAPARVGLVAPVDVVVPP
Consider B4, for which the binding result in test [7] and in test [8] was “binds” in each case.

B5: Os60sP0p C-terminus (215-320 aa) (yeast two-hybrid fusion) (domain or fragment, UniProt P41095 215-319)
chain: MEKFASGVSMVASVSLAISYPTIAAAPHMFLNGYKNVLAVAVETEYSYPHADKIKEYLKDPSKFAVAAPVAADSGAAAPSAAKEEEKKEEPEEESDGDLGMSLFD
Turning to B5, the binding entry in test [8] is “binds”.

B6: glutelin type A2 (GLUA2) (yeast two-hybrid fusion) (protein, UniProt P07730 1-499)
chain: MASINRPIVFFTVCLFLLCDGSLAQQLLGQSTSQWQSSRRGSPRGCRFDRLQAFEPIRSVRSQAGTTEFFDVSNELFQCTGVSVVRRVIEPRGLLLPHYTNGASLVYIIQGRGITGPTFPGCPETYQQQFQQSGQAQLTESQSQSHKFKDEHQKIHRFRQGDVIALPAGVAHWCYNDGEVPVVAIYVTDINNGANQLDPRQRDFLLAGNKRNPQAYRREVEEWSQNIFSGFSTELLSEAFGISNQVARQLQCQNDQRGEIVRVERGLSLLQPYASLQEQEQGQMQSREHYQEGGYQQSQYGSGCPNGLDETFCTMRVRQNIDNPNRADTYNPRAGRVTNLNSQNFPILNLVQMSAVKVNLYQNALLSPFWNINAHSIVYITQGRAQVQVVNNNGKTVFNGELRRGQLLIVPQHYVVVKKAQREGCAYIAFKTNPNSMVSHIAGKSSIFRALPTDVLANAYRISREEAQRLKHNRGDEFGAFTPLQYKSYQDVYNVAESS
As to B6, the binding entry in test [8] is given as “no binding”.

The record behind these values is PMC4340293.
